# Laboratory results as given in PMC4336329 (PLoS ONE, 2015).
# In all, about 310,000 compounds went through this assay and about 14,000 (4.5%) showed an effect of 50% or more. Effects have a minus sign here. This is one part of the list.
# Molecular target: human ether-à-go-go-related gene (hERG) potassium channel (human, UniProt Q12809)
# Experiment: primary screen, population patch clamp on CHO cells stably expressing hERG
# 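Further: peak tail current of the secondary pulse compared with the same well before compound.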
# Chain of human ether-à-go-go-related gene (hERG) potassium channel (Q12809 whole entry, looked up): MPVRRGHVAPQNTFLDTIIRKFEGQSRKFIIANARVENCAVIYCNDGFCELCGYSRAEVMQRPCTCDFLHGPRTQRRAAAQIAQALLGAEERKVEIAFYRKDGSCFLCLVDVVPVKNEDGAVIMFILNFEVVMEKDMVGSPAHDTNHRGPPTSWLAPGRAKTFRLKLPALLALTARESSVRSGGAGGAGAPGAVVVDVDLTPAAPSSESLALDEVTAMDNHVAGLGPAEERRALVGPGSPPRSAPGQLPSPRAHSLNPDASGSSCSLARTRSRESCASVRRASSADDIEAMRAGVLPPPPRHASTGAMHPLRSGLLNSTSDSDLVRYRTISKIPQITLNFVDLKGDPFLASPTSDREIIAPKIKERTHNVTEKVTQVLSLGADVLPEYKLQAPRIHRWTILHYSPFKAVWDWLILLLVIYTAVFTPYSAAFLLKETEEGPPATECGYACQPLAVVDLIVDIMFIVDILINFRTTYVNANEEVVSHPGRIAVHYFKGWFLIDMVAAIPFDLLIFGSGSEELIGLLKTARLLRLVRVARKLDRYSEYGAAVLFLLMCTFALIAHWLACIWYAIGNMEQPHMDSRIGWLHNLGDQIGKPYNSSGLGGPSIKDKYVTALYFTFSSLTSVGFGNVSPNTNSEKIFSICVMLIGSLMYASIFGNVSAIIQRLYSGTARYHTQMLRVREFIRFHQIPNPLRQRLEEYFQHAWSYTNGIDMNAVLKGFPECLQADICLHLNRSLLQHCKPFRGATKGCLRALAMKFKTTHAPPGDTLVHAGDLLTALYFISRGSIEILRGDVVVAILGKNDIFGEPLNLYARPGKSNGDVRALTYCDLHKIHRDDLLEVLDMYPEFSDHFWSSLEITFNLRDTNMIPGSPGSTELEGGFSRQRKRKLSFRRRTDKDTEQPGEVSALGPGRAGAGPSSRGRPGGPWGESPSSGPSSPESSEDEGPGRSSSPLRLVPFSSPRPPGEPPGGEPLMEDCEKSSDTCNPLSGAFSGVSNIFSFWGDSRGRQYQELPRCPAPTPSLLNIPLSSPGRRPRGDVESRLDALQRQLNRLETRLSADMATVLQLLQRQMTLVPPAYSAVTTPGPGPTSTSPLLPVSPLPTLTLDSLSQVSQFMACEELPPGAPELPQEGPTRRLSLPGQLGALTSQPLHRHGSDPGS
row,Compound,"hERG current change (%, negative = inhibition) at 10uM [%]"
1,Cc1cc(C)cc(NC(=O)CSc2ccc(-c3ccco3)nn2)c1,-28.8
2,CC(C)c1ccc(NC(=O)[C@H](NC(=O)[C@@H]2Cc3ccccc3CN2)c2ccccc2)cc1,-6.39
3,Cc1cc(C)c(C(=O)COC(=O)c2ccc(NC(=O)CC#N)cc2)cc1C,15.5
4,Cc1ccc(S(=O)(=O)Nc2ccc(S(=O)(=O)Nc3nccs3)cc2)c([N+](=O)[O-])c1,-23.9
5,Cc1cc(C(F)F)n2ncc(C(=O)NCc3ccccc3F)c2n1,-8.91
6,C/C=C/c1ccc(OCC(=O)OCC(=O)Nc2c(C)nn(-c3ccccc3)c2C)c(OC)c1,8.24
7,CN(Cc1ccc(C(C)(C)C)cc1)C(=O)C1CSC2(C)CCC(=O)N12 (stereo not shown),9.94
8,COC(=O)/C(C#N)=C/c1ccc(-c2ccc(S(N)(=O)=O)cc2)o1,-7.16
9,CN(C(=O)COC(=O)c1ccccc1Nc1ccccc1)c1c(N)n(Cc2ccccc2)c(=O)[nH]c1=O,21
10,Cc1ccc2c(CC(=O)Nc3ccc(F)c(S(=O)(=O)N4CCOCC4)c3)coc2c1,4.16
11,Cc1cc(C)c[n+](-c2nc3ccccc3nc2C(=C=[N-])C#N)c1,19.4
12,COc1ccc(CCN(C)Cc2c(F)cccc2F)cc1OC,-25.6
13,CCOC(=O)C/C(C)=N/NC(=O)c1cccs1,-6.1
14,CCN1CCN(C(=O)CCc2nc3ccccc3c(=O)[nH]2)CC1,24.5
15,O=C(CCCN1C(=O)[C@H]2CC=CC[C@H]2C1=O)NCc1nc(-c2ccc(Cl)cc2)no1,4.08
16,COc1cc2c(cc1Cl)C(=O)C(F)(c1ccccc1)C(=O)N2 (stereo not shown),11.6
17,O=C(CCn1c(=S)[nH]c2ccccc2c1=O)NCCc1ccccc1,16.7
18,CC(C)(C)c1ccc(NC(=S)NCc2cccs2)cc1,4.35
19,CSc1ccccc1C(=O)NCCOc1ccccc1C,3.99
20,O=C(N/N=C\c1cccnc1)c1ccccc1O,-17.5
21,COC(=O)c1cc(Br)ccc1NC(=O)CCNC(=O)c1ccco1,-35.5
22,COC(=O)[C@@]12CCCCN1[C@H](c1ccc(-c3ccccc3)cc1)[C@H]1C(=O)N(C)C(=O)[C@H]12.O=C(O)C(F)(F)F,6.37
23,Cc1cccc(C(=O)Nc2ccc(C(=O)N3CCCCC3C)cc2)c1 (stereo not shown),-15.8
24,COc1ccc(S(=O)(=O)Nc2ccc3c(c2)OCO3)cc1,6.47
25,CC1CCN(CCCCOc2ccccc2[N+](=O)[O-])CC1.O=C(O)C(=O)O,-26.3
26,CN(CC(=O)Nc1ccc(OC(F)(F)F)cc1)C1CCCCC1.Cl,-61.6
27,CC(C)CN1C(=O)C(=O)N(CC(=O)c2ccc3c(c2)CCCC3)C1=O,8.25
28,Cc1ccc(C(CNS(=O)(=O)c2ccc(F)cc2C)N2CCN(C)CC2)cc1 (stereo not shown),-57

row,Compound,"hERG current change (%, negative = inhibition) at 10uM [%]"
1,CCCOc1ccc(N2CC(C(=O)NCCc3ccc(OC)c(OC)c3)CC2=O)cc1 (stereo not shown),-6.97
2,Fc1ccccc1OCCCCN1CCCCC1,5.03
3,Brc1csc2ncccc12,1.64
4,NC(=O)[C@@H]1CC2(CC(c3cccc(NC(=O)COc4ccc(Cl)cc4)c3)=NO2)CN1C(=O)COc1ccc(Cl)cc1 (stereo partly shown),-29.4
5,COc1cc(NC(=O)c2ccc(F)cc2)c(OC)cc1Cl,3
6,Cc1nc(NCc2ccccc2)c(C(N)=O)c2c1COC(C)(C)C2,-3.89
7,Cc1ccccc1/C=N/NC(=O)Cc1ccc(Cl)cc1,17
8,Cc1oc(-c2cc(F)ccc2F)nc1CN1CCN(c2cnccn2)CC1,-28.2
9,N#CC1=C(N)SC(N)=C(C#N)C1C1C=CCCC1 (stereo not shown),-14.4
10,CCn1c(SCC(=O)Nc2ccc3c(c2)OCCO3)nnc1-c1ccncc1,0.979
11,Cc1onc(-c2c(Cl)cccc2Cl)c1C(=O)O/N=C(\C#N)c1c(Cl)cccc1Cl,9.4
12,CC1=CN2C(=NC(=O)CC2(C)C(=O)N(CC(=O)NC2CCCC2)Cc2ccccc2)C=C1 (stereo not shown),9.32
13,Cc1ccc(-n2nc(-c3ccc(OC(F)(F)F)cc3)cc2N)cc1C,-0.351
14,CCOc1cc(/C=C/c2ccc3cccc([N+](=O)[O-])c3n2)ccc1OCC(=O)N(C)C,-33.4
15,O=C(CCc1nnc(C2(c3ccc(Cl)cc3)CCC2)o1)N1CCCC1,-4.23
16,COc1ccc(CCN(C)C(=O)COc2ccc(C(=O)c3ccccc3)cc2)cc1OC,-38.7
17,Cc1ccc2nc(NNC(=O)c3ccc(S(=O)(=O)N4CCc5ccccc5C4)cc3)sc2c1,10.3
18,Cc1cccc(C(=O)NC(=S)N2CCN(C)CC2)c1,-8.42
19,CS(=O)(=O)N1CCC(C(=O)Nc2ccc(Cl)c(Cl)c2)CC1,0.0491
20,CC(=O)c1cc2c(cc1NS(=O)(=O)c1ccccc1)OCO2,-4.28
21,CC1CCN(C(=O)c2cc3nc(C4CC4)cc(C(F)(F)F)n3n2)CC1,-27.3
22,CN(C(=O)CCN1C(=O)C(C)(C)Nc2ccccc21)c1ccccc1,5.28
23,CCC1=Nc2cc(C(=O)NCc3ccco3)ccc2Sc2ccc(Cl)cc21,17.6
24,CC1C(=O)N2CCCc3cc(S(=O)(=O)N(C)Cc4ccccc4)cc1c32 (stereo not shown),-14.7
25,Cc1ccccc1CC1(CO)CCCN(C(=O)CCC(=O)c2ccccc2)C1 (stereo not shown),-16.7
26,COC(=O)c1ccc(C[n+]2ccccc2)cc1.[Br-],17.3
27,COc1ccc(S(=O)(=O)NC(CCSC)C(=O)NC2CCCCC2)cc1 (stereo not shown),18.1
